This is an account of results in PubChem BioAssay AID485344 (National Center for Advancing Translational Sciences (NCATS), 2010).

About 6,900 (2%) of roughly 340,000 compounds were called active. Rule as the data show it: active = inhibition above about 30%; inactive = below that, where a call was filed. The entries are a selection whose mix differs from that of the whole data set. The source gives no active or inactive call for entries shown without one.

For the experiment, the target named is D(2) dopamine receptor (Homo sapiens) (UniProt P14416). Description: HTS Assay for Allosteric Antagonists of the Human D2 Dopamine Receptor: Primary Screen for Antagonists. Also: 0% is about no effect. As to conditions: HEK293 TREx D2 cells, calcium flux, dopamine EC80; at 10 µM; stronger effect = higher value. The method, boiled down: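 Measurement of antagonist activity uses fluorescent calcium dye in inducible HEK293 T-REx D2 cells: 10 s baseline, compound addition with 180 s read, EC80 dopamine addition with a further 180 s read.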
Sequence of UniProt P14416 (P14416 whole entry, looked up): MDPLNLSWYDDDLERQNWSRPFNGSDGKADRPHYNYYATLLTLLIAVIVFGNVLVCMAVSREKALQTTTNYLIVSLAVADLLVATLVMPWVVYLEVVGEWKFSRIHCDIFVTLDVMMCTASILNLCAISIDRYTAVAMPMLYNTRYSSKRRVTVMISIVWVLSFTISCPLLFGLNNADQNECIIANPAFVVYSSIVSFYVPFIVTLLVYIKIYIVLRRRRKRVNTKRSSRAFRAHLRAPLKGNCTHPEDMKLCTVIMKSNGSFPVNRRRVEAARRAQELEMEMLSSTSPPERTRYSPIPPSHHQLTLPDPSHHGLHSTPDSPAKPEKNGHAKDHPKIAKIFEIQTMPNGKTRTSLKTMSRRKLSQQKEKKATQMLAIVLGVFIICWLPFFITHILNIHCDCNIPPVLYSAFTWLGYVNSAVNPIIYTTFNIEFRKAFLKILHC
In general terms: Calcium assays in cells follow changes in intracellular calcium, usually with a dye or a luminescent sensor.
In general, inhibition refers to the drop in the measured response relative to a control, in per cent. Regarding `CCc1ccc2ncc3c(-c4ccccc4)nn(-c4ccccc4)c3c2c1`, the inhibition worked out at 16.6%.
Regarding `CC(C)COc1ccc(C(=O)NCC2(N3CCN(C)CC3)CCCCC2)cc1`, the inhibition stood at 1.77%.
The result for `COc1ccc(N(C(=O)c2ccc(OC)c(OC)c2)S(=O)(=O)c2ccc(Cl)cc2)cc1` reads -4.38%; that for `Cc1cc(NS(=O)(=O)c2ccc(NC(=O)c3ccccc3C)cc2)nc(C)n1`, 10.6%; that for `Cc1nc2scc(C)n2c(=O)c1S(=O)(=O)N1CCN(c2ccccc2)CC1`, active: 31.8%.
The result for `Cc1ccc(C)c(NC(=O)CC2NCCNC2=O)c1` (configuration not stated) reads -5.59%.
With `CCCc1cc(=O)[nH]c2nnc(SC(C)CC)n12` (configuration not stated), the inhibition came to 21.2%.
Regarding `CCOC(=O)c1sc(NC(=O)/C=C/c2ccc(C(C)C)cc2)c(C(=O)OCC)c1C`, the inhibition worked out at 0.272%.
As for `Cc1ccc2nc(N3CCN(c4cccc(C(F)(F)F)c4)CC3)c3nnnn3c2c1`, the inhibition was -17.4%.
Regarding `CCc1cccc(C)c1NS(=O)(=O)c1cc2[nH]c(=O)c(=O)[nH]c2cc1C`, the inhibition is -9.38%.
Consider `CCN(CC)c1ccc(NC(=O)CCS(=O)(=O)c2cc3c(cc2Cl)NC(=O)CO3)c(C)c1`, for which the inhibition is -1.32%.
The result for `Cc1ccc2nc(-c3ccc(Cl)c(NC(=O)COc4cccc(C)c4C)c3)oc2c1` reads -21.8%.
Turning to `Cc1cccc(NC(=O)c2ccc3snnc3c2)c1`, the inhibition was 3.67%.
To `CCN1CCOC(=O)C1CC(=O)Nc1cc(C)ccc1OC` (configuration not stated) belongs 14.4%.
`Cc1cc2c(cc1NS(=O)(=O)c1ccc(F)cc1)n(C)c(=O)c(=O)n2C`: the inhibition came out at 11.7%.
The result for `COc1ccc(CCNC(=O)CCn2c(=O)c3ccccc3n(Cc3cc(C)ccc3C)c2=O)cc1OC` reads -18.1%; that for `Cc1ccc(Cn2ccn(Cc3ccccc3F)c(=O)c2=O)cc1`, -4.28%.
To `COc1ccc(NC(=O)Cn2c(=O)n(CCC(=O)NCc3ccccc3OC)c(=O)c3ccccc32)cc1Cl` belongs -3.42%; to `Cc1nc2c(-c3ccccc3)c(C)nn2c(C)c1CCC(=O)N1CCN(c2ccc(F)cc2)CC1`, 19.6%.
To `COc1cccc(CNC(=O)CCc2c(C)nc3c(c(C)nn3-c3ccc(C)c(C)c3)c2C)c1` belongs -20.1%; to `Cc1c(Cl)cccc1NC(=O)COCc1cc(-c2ccc3c(c2)OCO3)on1`, -8.75%.
For `CSc1ccc(CCNC(=O)c2ccc(-c3nc(COc4ccccc4)c(C)o3)cc2)cc1`, the inhibition is -10.3%.
Take `Cc1cccc(N2CCN(CCCNc3ncnc4onc(-c5ccc(Cl)cc5)c34)CC2C)c1` (configuration not stated): the inhibition came out at 9.6%.
To `Cc1cc(OCCn2cc(C(=O)c3cccs3)c3ccccc32)ccc1Cl` belongs 2.83%.
As for `O=C(Nc1ccc2nc(SCC(=O)N3CCOCC3)sc2c1)c1cccc(Cl)c1`, the inhibition is -20%.
Consider `Cc1c(C(=O)OCCOc2ccccc2)[nH]c2c1C(=O)CC(c1ccccc1)C2` (configuration not stated), for which the inhibition is -2.89%.
The result for `CC(=O)N1CCc2cc(CNC(=O)Cc3ccc(F)cc3)ccc21` reads -5.29%; that for `CCOc1ccccc1CNC(=O)C1CCN(C(=O)N2CC(CC)Oc3ccc(C)cc32)CC1` (configuration not stated), 0.602%; that for `COc1cccc(CNC(=O)C(=O)NCC(c2ccco2)S(=O)(=O)c2cccs2)c1` (configuration not stated), 2.68%.
With `CC(C)(C)C(=O)Cn1c(=O)n(-c2ccc(Cl)cc2)c(=O)c2c3c(sc21)CCCC3`, the inhibition was determined as 10.5%.
The result for `O=C(/C=C/c1ccccc1)N1CCN(Cc2cc(=O)n3nc(-c4ccccc4F)sc3n2)CC1` reads 5.32%; that for `COc1ccc(N2CC(NC(=O)/C=C\c3ccccc3)CC2=O)cc1` (configuration not stated), -12.9%.
Turning to `O=C(Cn1c(SCCOc2ccccc2)nc2ccccc21)N1CCOCC1`, the inhibition is 2.07%.
Consider `COc1ccccc1N1CCN(C(=O)c2nc(SC)ncc2Cl)CC1`, for which the inhibition was -6.32%.
For the compound `COc1ccc(C)cc1NC(=O)CCS(=O)(=O)c1cc2c3c(c1)CCN3C(=O)CC2`, the inhibition is -3.03%.
The result for `CCOc1ccc(Oc2nc(NCC(C)C)nc(N3CCOCC3)n2)nn1` reads 1.29%; that for `CCOC(=O)N1CCc2c(sc(NCc3sccc3C)c2C(=O)Nc2ccc(OC)cc2OC)C1`, 2.28%.
With `CCCCCNC(=O)C1CC=CCC1C(=O)O` (configuration not stated), the inhibition was active: 36.1%.
The result for `Cc1cc(C)cc(NC(=O)C(Cc2ccccc2)NS(=O)(=O)c2ccc3c(c2)c(=O)n(C)c(=O)n3C)c1` (configuration not stated) reads 7.57%; that for `O=C(NCc1ccccc1CN1CCCC1)c1ccc(OCc2cscn2)cc1`, active: 34.8%.
Regarding `Cc1ccc(CN2CCC(CNC(=O)Nc3ccc(Cl)cc3)C2)cc1` (configuration not stated), the inhibition was -9.43%.
For the compound `CC(C)(C)OC(=O)N1CCC(c2c(C(=O)NCCN3CCc4ccccc4C3)cnn2-c2ccc(F)cc2F)CC1`, the inhibition was -23.4%.
As to `Cc1ccc(-n2c(=O)c3cccnc3n2CC(=O)Nc2ccc(Br)cc2)cc1C`, the inhibition was -14.7%.
In the case of `Cc1ccc(NC(=O)CCn2c(=O)c3cccn3c3ccccc32)cc1C`, the inhibition is 3.34%.
Take `CCC(=O)N1CCc2cc(Br)cc(S(=O)(=O)CCC(=O)NCCc3cccc(C)c3)c21`: the inhibition was -12.3%.
To `c1ccc(CCNc2cnccn2)cc1` belongs active: 37.7%; to `C/C(CC(=O)Nc1ccccn1)=N\NC(=O)c1ccccc1O`, active: 46.9%.
To `Cc1cc(Cl)ccc1OCc1nc(-c2ccc(-n3cccc3)cc2)no1` belongs -2.84%; to `Cc1c(C(=O)NCC(c2ccc(Cl)cc2)N2CCOCC2)oc2ccccc12` (configuration not stated), -9.48%.
In the case of `CCCCOc1ccc(C(=O)Oc2cc(C)[nH]c(=O)c2[N+](=O)[O-])cc1`, the inhibition was active: 77.1%.
`CCOc1ccc(N2CC(c3nc4ccccc4n3CCCOc3ccccc3)CC2=O)cc1` (configuration not stated): the inhibition was found to be 6.16%.
`CCCCOC(=O)c1ccc(NC(=O)c2cc3c(=O)n4cccc(C)c4nc3s2)cc1`: the inhibition was -10.6%.
The result for `CCCCN(C)CCNC(=O)c1c2c(nc3ccccc13)C(=O)N(C1CCCCC1)C2` reads 6.26%.
With `CCOc1ccc(NC(=O)c2cnc(N3CCCC3)nc2C)cc1`, the inhibition is -3.91%.
On to `COc1ccc(CNc2nc3c(-c4cccc(C)c4)nnn3c3ccccc23)cc1`, for which the inhibition was 12.6%.
The result for `CCOc1ccc(CCNC(=O)c2cn(C)c3ccc(S(=O)(=O)N4CCCCCC4)cc3c2=O)cc1OCC` reads -5.06%; that for `Cc1nn(CC(=O)N2CCC(C)CC2)c(=O)c2cc3sccc3n12`, -6.75%; that for `COc1ccc(NC2=NCC(=O)N2c2ccccc2F)cc1`, active: 36.6%.
Consider `COc1ccccc1NC(=O)c1c(NCc2ccc(OC)c(OC)c2OC)sc2c1CCC2`, for which the inhibition is -2.54%.
To `CCOC(=O)c1c(C)[nH]c(C)c1S(=O)(=O)N(C)CC(=O)N1CCN(c2ccccc2)CC1` belongs 3.07%; to `CC(C)c1ccc(NC(=O)Cn2cc(S(=O)(=O)N3CCN(c4ccccc4F)CC3)c3ccccc3c2=O)cc1`, 12.7%.
The result for `Cc1ccc(CN(C(=O)COc2ccc([N+](=O)[O-])cc2)c2ccccn2)cc1` reads -10.8%; that for `CCN(CC)CCCNC(=O)c1cnc(SC)nc1-c1ccccc1`, 9.8%.
In the case of `CCN(CC)CCCNC(=O)c1cn(C)c2ccc(S(=O)(=O)N(C)C3CCCCC3)cc2c1=O`, the inhibition turned out to be 8.22%.
To `CCOCCc1nn2c(=O)cc(COC(=O)CNC(=O)c3cccc(C)c3)nc2s1` belongs -12.5%; to `Cc1ccc2c(=O)cc(C(=O)Nc3nc4ccc(Cl)cc4s3)oc2c1C`, 14.8%; to `CCN(C(=O)CSc1nc2ncccc2[nH]1)c1ccc(C(C)C)cc1`, 1.09%.
The result for `COc1cccc(-c2ncnn2-c2sc3c(c2C#N)CCCCC3)c1OC` reads 14.8%; that for `O=C(COc1ccc(Cl)cc1)Nc1nnc(S(=O)(=O)N2CCc3ccccc32)s1`, 16.7%.
The result for `CC1=C(C#N)C(NC(=O)c2ccccc2Cl)(C(F)(F)F)C(=O)N1` (configuration not stated) reads -13.6%; that for `CCc1ccc(NC(=O)c2sc3nc(C)c(Cl)c(C)c3c2NC(=O)c2ccccc2OC)cc1`, -2.01%; that for `COc1ccc(OC)c(NC(=O)C2=C(C)C(=O)OC23CCCCCC3)c1`, -6.22%.
On to `Cc1ccc(S(=O)(=O)c2nnn3c2nc(N2CCN(c4ccccc4F)CC2)c2cc(Cl)ccc23)cc1C`, for which the inhibition came to 3.48%.
The result for `O=C(c1ccc2c(c1)N(Cc1cccc(F)c1)C(=O)c1ccccc1S2)N1CCOCC1` reads -5.3%; that for `COc1ccc(/C=C/C(=O)Nc2ccc3nc4c(c(Nc5ccccc5OC)c3c2)CCCC4)cc1`, 11%; that for `Cc1ccccc1CN1C(=O)c2ccccc2S(=O)c2ccc(C(=O)NC3CCC(C)CC3)cc21` (configuration not stated), 12.4%.
`Cc1ccc(S(=O)(=O)c2nnn3c2nc(N2CCCC2)c2sccc23)cc1C`: the inhibition is 14.8%.
Turning to `Cc1cc(C)n(CCc2nc3c4ccccc4nc(N4CCN(c5ccccc5)CC4)n3n2)n1`, the inhibition is -14.3%.
With `COc1cccc(CNC(=O)C2CCCCN2S(=O)(=O)c2ccc(F)cc2)c1` (configuration not stated), the inhibition worked out at 15.1%.
The result for `CCOC(=O)C1(C)C=C(Nc2cccc(C(=O)O)c2)C(=O)N1c1cccc(C(=O)O)c1` (configuration not stated) reads -4.66%; that for `CCCNCC1COc2ccccc2O1` (configuration not stated), active: 32.5%; that for `COc1ccc(-c2noc(-c3ccc(N4CCN(c5ccccc5)CC4)c([N+](=O)[O-])c3)n2)cc1OC`, -9.38%.
With `Cc1cc(F)ccc1NS(=O)(=O)c1ccc(-n2cccn2)cc1`, the inhibition is 5.6%.
For `Cc1ccc(CNS(=O)(=O)c2ccc3[nH]c4c(c3c2)CCCC4)cc1`, the inhibition came to 17.9%.
As to `CCCCc1nn2c(=O)cc(COC(=O)c3ccc(NC(=O)c4ccccc4C)cc3)nc2s1`, the inhibition came to 1.81%.
For `O=C1CS(=O)(=O)C2(C(=O)N(Cc3ccccc3)c3ccccc32)N1c1ccccc1` (configuration not stated), the inhibition is -14.2%.
The result for `COc1cc2c(cc1OC)C(COc1ccccc1OC)N(C(=O)COc1ccc(Cl)cc1)CC2` (configuration not stated) reads 5.64%; that for `Cc1ccc(CCNC(=O)c2ccc3c(c2)nc2n3CCC(C)C2)cc1` (configuration not stated), 1.22%; that for `O=C(C1CCN(c2ncnc3c2nc2n3CCCCC2)CC1)N1CCN(c2cccc(Cl)c2)CC1`, 4.67%.
The result for `COc1ccc(OC)c(CNC(=O)Cc2ccc(NC(=O)N3CCSc4ncccc43)cc2)c1` reads -8.52%; that for `CN1CCN(c2ccccc2NC(=O)COc2ccc(Cl)cc2)CC1`, active: 30.3%.
The result for `Cc1ccc(Cn2c(CNS(=O)(=O)c3ccc(F)c(Cl)c3)nc3cccnc32)cc1` reads -19.1%.
For the compound `C=CCNCCOc1ccccc1-c1ccccc1`, the inhibition was active: 86.9%.
For `COc1ccc(-n2ncc(C(=O)NCCc3ccsc3)c2C2CCN(C(=O)OC(C)(C)C)CC2)cc1`, the inhibition is -6.84%.
For the compound `Cc1noc(-c2ccc(N3CCCCC3)c([N+](=O)[O-])c2)n1`, the inhibition was -11.9%.
`Cc1cc(NC(=O)c2cccc(Cl)c2)ccc1-c1cc2ccccc2oc1=O`: the inhibition was -1.66%.
To `C=CCN1C(=O)CN=C1Nc1ccc(F)cc1` belongs active: 54.3%.
